# Results from US20190002533A1.
# Target: BKV serotype III VP1 pentamer (BK virus (BKV) serotype III), P14996
# Assay: SET (solution equilibrium titration)
# Conditions: remark: other sources report otherwise
row,Binder,Kd
1,"NEG447A (antibody, human IgG1, lambda) heavy: QVQLQESGPGLVKPSETLSLTCTVSGGSISRDYWSWVRQPPGAGLEWIGNIYYSGSTNYNPSLKSRVTISVATNKKQFSLKLTSVTAADTAVYYCARVPGCSSTSCIDGWFDPWGQGILVTVSSASTKGPSVFPLAPSSKSTSGGTAALGCLVKDYFPEPVTVSWNSGALTSGVHTFPAVLQSSGLYSLSSVVTVPSSSLGTQTYICNVNHKPSNTKVDKRV[sequence of human IgG1 Fc omitted] light: QSVLTQPPSVSAAPGQKVTISCSGSSSNIGNTYVSWYQQLPGTAPKLLIYDNNKRPSGIPDRFSGSKSGTSATLGITGLQTGDEADYYCGTWDSSLSAWVFGGGTRLTVLGQPKAAPSVTLFPPSSEELQANKATLVCLISDFYPGAVTVAWKADSSPVKAGVETTTPSKQSNNKYAASSYLSLTPEQWKSHRSYSCQVTHEGSTVEKTVAPTECS",> 10 nM
2,"P7G11 (antibody, human IgG1, lambda) heavy: QVQLQESGPGLAKPSQTLSLTCSVSGGSISSGGYSWSWIRQPPGKGLEYIGYIYYRGTTYYNPSLKSRITMSVDTSNNQISLKLTSVTAADTAVYYCARALTHLVGVGWFDPWGQGTMVTVSSASTKGPSVFPLAPSSKSTSGGTAALGCLVKDYFPEPVTVSWNSGALTSGVHTFPAVLQSSGLYSLSSVVTVPSSSLGTQTYICNVNHKPSNTKVDKRV[sequence of human IgG1 Fc omitted] light: QSVLTQPPSVSAAPGQKVTISCSGGSSNLGSNYVSWYQQLPGTAPKLLIYDNNKRPSGIPDRFSGSKSGTSATLGITGLQTGDEADYYCGTWDGSLSAWVFGGGTKVTVLGQPKAAPSVTLFPPSSEELQANKATLVCLISDFYPGAVTVAWKADSSPVKAGVETTTPSKQSNNKYAASSYLSLTPEQWKSHRSYSCQVTHEGSTVEKTVAPTECS",> 10 nM
